These are yes or no findings as the source states them, for the method shown. For some assays here: In cells and extracts the contact can be indirect. Some results given as binding are weak or reduced against the parent protein; the word gives no strength. For some assays here: Sequences can lack the tags named with a protein. Values belong to the molecule of their own block, whether it stands above or below them.
How the values were obtained:
Rubicon-GFP [1] = molecular target: T1, Rubicon-GFP (UniProt Q92622); assay: co-IP; GFP co-IP from HUVEC stably co-transduced with Rab5 DN-mCherry and ZFYVE21-GFP or Rubicon-GFP, treated with MG132
T1 sequence: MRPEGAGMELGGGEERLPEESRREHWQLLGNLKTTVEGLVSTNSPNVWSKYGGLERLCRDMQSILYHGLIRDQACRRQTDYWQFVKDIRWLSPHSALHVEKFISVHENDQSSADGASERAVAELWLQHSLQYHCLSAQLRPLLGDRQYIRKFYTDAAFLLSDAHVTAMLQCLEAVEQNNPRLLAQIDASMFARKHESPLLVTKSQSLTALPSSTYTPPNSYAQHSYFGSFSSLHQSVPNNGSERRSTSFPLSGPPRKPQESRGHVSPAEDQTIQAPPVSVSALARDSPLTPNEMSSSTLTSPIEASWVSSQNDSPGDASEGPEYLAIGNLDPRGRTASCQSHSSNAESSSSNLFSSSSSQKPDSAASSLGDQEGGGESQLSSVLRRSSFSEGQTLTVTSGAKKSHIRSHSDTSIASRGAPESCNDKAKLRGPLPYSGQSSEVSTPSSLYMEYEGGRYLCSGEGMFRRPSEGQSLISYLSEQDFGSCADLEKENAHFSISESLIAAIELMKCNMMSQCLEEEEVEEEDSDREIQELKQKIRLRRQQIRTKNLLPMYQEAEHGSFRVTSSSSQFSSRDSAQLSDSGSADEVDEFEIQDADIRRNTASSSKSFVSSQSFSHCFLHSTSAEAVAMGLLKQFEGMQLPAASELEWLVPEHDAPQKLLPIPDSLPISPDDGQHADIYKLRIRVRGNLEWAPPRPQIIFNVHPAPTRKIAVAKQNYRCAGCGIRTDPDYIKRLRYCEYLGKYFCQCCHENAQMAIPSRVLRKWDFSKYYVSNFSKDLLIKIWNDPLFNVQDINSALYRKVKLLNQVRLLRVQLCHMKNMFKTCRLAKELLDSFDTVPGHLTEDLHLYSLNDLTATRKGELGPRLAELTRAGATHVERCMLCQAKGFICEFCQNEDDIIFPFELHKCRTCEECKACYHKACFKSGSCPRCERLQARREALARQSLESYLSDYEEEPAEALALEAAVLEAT

Amino acid sequences for entries named in this document (tags omitted).
UniProt Q9BQ24: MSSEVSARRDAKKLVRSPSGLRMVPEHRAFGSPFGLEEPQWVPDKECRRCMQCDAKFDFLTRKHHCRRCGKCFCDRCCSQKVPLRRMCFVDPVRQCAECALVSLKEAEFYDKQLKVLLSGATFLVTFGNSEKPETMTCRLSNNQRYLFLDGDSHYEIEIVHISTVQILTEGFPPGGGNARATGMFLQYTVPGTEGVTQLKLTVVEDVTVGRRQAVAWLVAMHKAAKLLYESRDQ
UniProt Q9ULZ3: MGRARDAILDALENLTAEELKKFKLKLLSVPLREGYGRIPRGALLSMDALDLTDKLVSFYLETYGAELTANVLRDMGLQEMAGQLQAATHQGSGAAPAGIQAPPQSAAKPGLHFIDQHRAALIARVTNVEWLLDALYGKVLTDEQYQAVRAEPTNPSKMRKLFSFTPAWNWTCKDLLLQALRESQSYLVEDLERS

Rubicon-GST (human) [2] = molecular target: T2, Rubicon-GST (human) (UniProt Q92622); assay: ELISA; plate-bound bait protein (Nunc MaxiSorp, Na2CO3 pH 9.6, 4 °C overnight), soluble prey at varying concentrations in 5% BSA PBS-T, 4 °C overnight; detected with antibody against the prey, absorbance at 450 nm; both purified
T2 sequence: T1 sequence

Rubicon-GST (human) [3] = molecular target: T2, Rubicon-GST (human); assay: far-Western, overlay or dot blot; ZFYVE21-GFP (1 μg) as probe on Rubicon-GST, RNF34-His or a 1:1 mixture loaded at 1 μg per lane, 4 °C overnight, non-denaturing conditions; GFP probe as control; both purified
Rubicon-GST (human) [4] = molecular target: T2, Rubicon-GST (human); assay: ELISA; ELISAs of ZRR complex proteins (ZFYVE21, Rubicon, RNF34) with NLRP3 and ASC, reciprocal, at the concentrations tested (Supplementary Fig 5h; legend not shown); both purified
Rubicon-GFP [5] = molecular target: T1, Rubicon-GFP; assay: co-IP; GFP co-IP from HUVEC stably transduced with Rubicon-GFP and transiently transfected with increasing concentrations of RNF34-His plasmid; Western blot
Rubicon-GST (human) [6] = molecular target: T2, Rubicon-GST (human); assay: co-incubation, SDS-PAGE band + LC-MS/MS of the excised band; Rubicon-GST (1 μg) and RNF34-His (1 μg) co-incubated 1:1 in 50 μL (1 h at room temperature or overnight at 4 °C by the legend; room temperature overnight by the methods), resolved by SDS-PAGE; both purified
[7] = molecular target: T3, Flightless I (human (endogenous in HUVEC)) (UniProt Q13045); assay: co-IP; anti-FliI pulldown from lysates of HUVEC, basal and PRA for the indicated times; RIPA buffer without SDS, protein A/G agarose
T3 sequence: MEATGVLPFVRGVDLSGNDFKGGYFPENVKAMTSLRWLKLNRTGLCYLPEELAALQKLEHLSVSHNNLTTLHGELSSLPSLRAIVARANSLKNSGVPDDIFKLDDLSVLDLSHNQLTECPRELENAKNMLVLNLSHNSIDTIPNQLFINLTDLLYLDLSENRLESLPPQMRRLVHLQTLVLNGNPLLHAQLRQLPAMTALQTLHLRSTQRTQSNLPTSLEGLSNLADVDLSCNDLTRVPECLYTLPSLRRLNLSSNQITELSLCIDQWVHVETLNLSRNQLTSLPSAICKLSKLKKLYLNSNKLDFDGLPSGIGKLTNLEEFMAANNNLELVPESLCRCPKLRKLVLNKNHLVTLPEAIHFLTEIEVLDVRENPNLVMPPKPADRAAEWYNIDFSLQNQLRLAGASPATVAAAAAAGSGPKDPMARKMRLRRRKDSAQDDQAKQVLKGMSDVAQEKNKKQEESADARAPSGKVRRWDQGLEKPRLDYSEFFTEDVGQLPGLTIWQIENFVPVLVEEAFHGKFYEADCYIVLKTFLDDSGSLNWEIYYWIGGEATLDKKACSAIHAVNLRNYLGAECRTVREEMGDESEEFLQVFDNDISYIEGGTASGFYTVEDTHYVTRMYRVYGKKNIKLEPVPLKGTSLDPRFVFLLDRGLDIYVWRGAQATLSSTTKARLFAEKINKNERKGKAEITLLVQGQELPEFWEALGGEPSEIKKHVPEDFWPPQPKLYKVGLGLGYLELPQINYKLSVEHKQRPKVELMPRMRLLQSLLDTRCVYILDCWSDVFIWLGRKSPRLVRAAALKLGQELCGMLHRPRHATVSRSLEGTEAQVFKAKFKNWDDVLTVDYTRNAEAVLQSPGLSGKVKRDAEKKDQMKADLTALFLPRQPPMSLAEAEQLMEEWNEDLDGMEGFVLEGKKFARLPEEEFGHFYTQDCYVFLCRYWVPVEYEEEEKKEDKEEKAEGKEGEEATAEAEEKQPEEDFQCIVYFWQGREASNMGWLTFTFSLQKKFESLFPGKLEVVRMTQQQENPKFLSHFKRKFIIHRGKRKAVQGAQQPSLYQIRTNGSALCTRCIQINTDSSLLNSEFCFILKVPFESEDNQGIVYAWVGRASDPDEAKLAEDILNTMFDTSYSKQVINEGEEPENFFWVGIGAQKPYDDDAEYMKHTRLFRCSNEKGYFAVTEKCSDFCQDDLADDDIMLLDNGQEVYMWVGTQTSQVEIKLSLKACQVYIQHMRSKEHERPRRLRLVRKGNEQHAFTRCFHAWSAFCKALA

[8] = molecular target: T4, Rubicon (human (endogenous in HUVEC)) (UniProt Q92622); assay: proximity ligation; human coronary artery xenografts in SCID/beige mice, PRA for 24 h; Rubicon and RNF34 in the intima (n = 3 per group)
T4 sequence: T1 sequence

ZFYVE21-GFP [9] = molecular target: ZFYVE21-GFP (UniProt Q9BQ24); assay: pull-down; ZFYVE21-GFP on agarose beads; Rubicon-GST (1 μg), RNF34-His (1 μg) or a 1:1 mixture pre-incubated 4 h at room temperature added, overnight at 4 °C, TBS with 3% Tween-20; eluted with 0.1 M glycine pH 3; Western blot under non-denaturing conditions; both purified
[10] = molecular target: ASC (protein used in ELISAs) (UniProt Q9ULZ3); assay: ELISA; ELISAs of ZRR complex proteins (ZFYVE21, Rubicon, RNF34) with NLRP3 and ASC, reciprocal, at the concentrations tested (Supplementary Fig 5h; legend not shown); both purified
ZFYVE21-GFP [11] = molecular target: ZFYVE21-GFP (UniProt Q9BQ24); assay: ELISA; plate-bound bait protein (Nunc MaxiSorp, Na2CO3 pH 9.6, 4 °C overnight), soluble prey at varying concentrations in 5% BSA PBS-T, 4 °C overnight; detected with antibody against the prey, absorbance at 450 nm; both purified

Molecule: ZFYVE21 (from UniProt Q9BQ24 1-234)
binding (Rubicon-GFP [1]): binds

Molecule: ZFYVE21-GFP protein (from UniProt Q9BQ24 1-234)
binding (Rubicon-GST (human) [2]): binds | binding (Rubicon-GST (human) [3]): binds

Molecule: ASC (protein used in ELISAs) (from UniProt Q9ULZ3 1-195)
binding (Rubicon-GST (human) [4]): binds

Results, then the molecule that gave them:

binding (Rubicon-GFP [5]): binds | binding (Rubicon-GST (human) [6]): binds
B1: RNF34-His (protein, UniProt Q969K3 1-372)
chain: MKAGATSMWASCCGLLNEVMGTGAVRGQQSAFAGATGPFRFTPNPEFSTYPPAATEGPNIVCKACGLSFSVFRKKHVCCDCKKDFCSVCSVLQENLRRCSTCHLLQETAFQRPQLMRLKVKDLRQYLILRNIPIDTCREKEDLVDLVLCHHGLGSEDDMDTSSLNSSRSQTSSFFTRSFFSNYTAPSATMSSFQGELMDGDQTSRSGVPAQVQSEITSANTEDDDDDDDEDDDDEEENAEDRNPGLSKERVRASLSDLSSLDDVEGMSVRQLKEILARNFVNYSGCCEKWELVEKVNRLYKENEENQKSYGERLQLQDEEDDSLCRICMDAVIDCVLLECGHMVTCTKCGKRMSECPICRQYVVRAVHVFKS

binding [7]: binds | binding [8]: binds
B2: RNF34 (protein, UniProt Q969K3 1-372)
chain: B1 chain

binding (ZFYVE21-GFP [9]): binds | binding [10]: binds | binding (ZFYVE21-GFP [11]): binds
B3: Rubicon-GST (protein, UniProt Q92622 1-972)
chain: T1 sequence

Reference: PMC10209169
